# From PubChem BioAssay AID485294 (National Center for Advancing Translational Sciences (NCATS), 2010)
# The campaign covered roughly 370,000 compounds. About 150 (0.041%) were called active. The shares of active, inactive and inconclusive entries below differ from those in the screen. Calls come from the whole dose curve; as a rule, active = well fitted inhibition curve with a large enough effect; inconclusive = small, poorly fitted or top-dose-only effect; inactive = flat fitted curve, though single readings scatter. No potency is given beside an inconclusive call; the fits are too rough.
# Target: Beta-lactamase (Escherichia coli (strain K12)) (UniProt P00811)
# Assay: qHTS Inhibitors of AmpC Beta-Lactamase (assay with detergent); note: nearly all actives have a fitted effect of over 25% in size
# Details: AmpC hydrolysis of nitrocefin, absorbance 480 nm, 0.01% Triton; series mostly up to 114 µM
# Summary of the method: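 20 mM phosphate pH 7.0 + 0.01% (detergent screen) or 0.0001% Triton X-100; 5.3 nM AmpC reagent; cpd preinc 15 min RT; nitrocefin (800 uM stock) to start; A480 q20 s × 4 min; Activity was normalised to no-enzyme and no-compound control wells.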
# Potency is the fitted concentration of half-maximal effect; tags give direction and shape of the fitted curve.
# Sequence of UniProt P00811 (P00811 whole entry, looked up): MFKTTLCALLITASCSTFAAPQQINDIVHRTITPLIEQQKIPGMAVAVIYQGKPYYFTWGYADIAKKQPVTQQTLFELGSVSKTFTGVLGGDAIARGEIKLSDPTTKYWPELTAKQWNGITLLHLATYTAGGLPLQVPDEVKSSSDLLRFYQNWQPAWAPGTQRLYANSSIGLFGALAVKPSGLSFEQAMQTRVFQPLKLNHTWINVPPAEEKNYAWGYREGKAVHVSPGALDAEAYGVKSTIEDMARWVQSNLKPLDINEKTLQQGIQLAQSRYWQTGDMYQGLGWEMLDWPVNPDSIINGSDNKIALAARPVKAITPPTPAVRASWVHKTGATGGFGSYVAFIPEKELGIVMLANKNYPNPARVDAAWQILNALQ
row,Compound,Potency
1,CCCOc1ccc(C(=O)C(c2ccccc2)N2CCOCC2)cc1 (stereo not given),"inconclusive [inhibitor, full curve, poor fit]"
2,Cc1cc(C)nc(NC(=O)Cc2ccc([N+](=O)[O-])cc2)c1,"inconclusive [inhibitor, single point]"
3,COc1ccc(-c2csc(NC(=O)CN3C(=O)CCC3=O)n2)c(OC)c1,"inconclusive [inhibitor, single point]"
4,CCCCn1c(SCC(=O)Nc2cc(C)on2)nnc1-c1cccs1,inactive
5,CCCC(=O)c1cc2c(cc1NC(=O)c1ccccc1F)OCCO2,inactive
6,CCN(c1ccccc1)S(=O)(=O)c1ccc(C(=O)Nc2nnc(CSC)o2)cc1,"inconclusive [inhibitor, full curve]"
7,CCOc1ccc(CNCCN2CCCC2)cc1,"inconclusive [inhibitor, full curve, poor fit]"
8,CC(C)Cn1nc(NC(=O)c2cccs2)c2cc3ccccc3nc21,"inconclusive [inhibitor, partial curve, poor fit]"
9,COc1ccc(S(=O)(=O)N2CCCCC2)cc1NC(=O)c1ccc(Cl)nc1,inactive
10,O=c1oc2ccccc2cc1-c1csc(Nc2nc3ccc(F)cc3s2)n1,inactive
11,CCOc1ccc(C(=O)NC(=S)Nc2ccc(NC(=O)CC)cc2)cc1[N+](=O)[O-],"inconclusive [inhibitor, partial curve, poor fit]"
12,Cc1cccc2c1-c1sc(C(=O)Nc3ccccc3N3CCN(C)CC3)cc1CO2,inactive
13,CNC(=O)Nc1cc(NC(=O)NC)cc(C(F)(F)F)c1,"inconclusive [inhibitor, full curve, poor fit]"
14,CSCCC(N=C1NS(=O)(=O)c2ccccc21)C(=O)N1CCCC(C(N)=O)C1 (stereo not given),"inconclusive [inhibitor, full curve, poor fit]"
15,CCc1c(C)nc(SCC(=O)N2CC(C)OC(C)C2)[nH]c1=O (stereo not given),"inconclusive [inhibitor, full curve, poor fit]"
16,COc1ccc(Cn2c(CCC(=O)O)nc3cccnc32)cc1,"inconclusive [inhibitor, single point]"
17,COc1ccccc1C(=O)O/N=C(\N)c1ccccn1,inactive
18,CCOC(=O)CC1(CC(=O)OCC)NC(=O)c2c(C)sc(C(=O)OCC)c2N1,"inconclusive [inhibitor, full curve]"
19,CCC(C)[C@H](NC(=O)NCc1ccco1)C(=O)O (stereo not given in full),"inconclusive [inhibitor, full curve, poor fit]"
20,CCCN=Cc1sc2ccc(OCC)cc2c1O,"inconclusive [inhibitor, full curve]"
21,Cc1cc(=O)[nH]c(N/N=C/CCc2ccccc2)n1,inactive
22,CCC(Oc1ccccc1)C(=O)NCc1ccc(S(N)(=O)=O)cc1 (stereo not given),"inconclusive [inhibitor, partial curve]"
23,O=c1cc(CNc2ccc(Br)cc2)nc2sccn12,"inconclusive [inhibitor, full curve, poor fit]"
24,CC(C)CNC(=S)N1CCC(NC(=O)c2ccco2)CC1,inactive

row,Compound,Potency
1,CCOC(=O)Cn1nc(C)c2ccccc2c1=O,"inconclusive [inhibitor, single point]"
2,CCOC(=O)C(NC(=O)c1ccccc1F)(Nc1cc(C)on1)C(F)(F)F (stereo not given),"inconclusive [inhibitor, partial curve, poor fit]"
3,Cc1c(Cl)c(=O)n2c(=O)c(Cl)c(C)n12,"inconclusive [inhibitor, full curve, poor fit]"
4,O=c1c2ccccc2c(=O)n(Cc2ccccc2)n1Cc1ccccc1,"inconclusive [inhibitor, single point]"
5,COc1ccc(N2CCN(CC(=O)Nc3ccc(C)c(C)c3)CC2)cc1,"inconclusive [inhibitor, full curve, poor fit]"
6,Cc1ccc(NC2SC(=O)N(Cc3cccc(C(=O)O)c3)C2=O)cc1 (stereo not given),inactive
7,CC(=O)Nc1ccccc1OCC(=O)NCCC1=CCCCC1,"inconclusive [inhibitor, partial curve, poor fit]"
8,COC(=O)c1cc2occc2n1Cc1c(F)cccc1Cl,inactive
9,CNC(=S)Nc1cccc(C(=O)O)c1,inactive
10,Cc1ccc(NCc2nnc(SCC(=O)NCc3ccco3)n2CC2CCCO2)cc1Cl (stereo not given),"inconclusive [inhibitor, full curve]"
11,COc1cc(SC)ccc1C(=O)N1CCn2c3c(c4cc(C)ccc42)CCCC31 (stereo not given),inactive
12,COc1ccc(C)cc1NC(=O)C1CCN(C(=O)Cc2ccccc2)CC1,inactive
13,COc1cc(-c2ccc(N)c(OC)c2)ccc1N,inactive
14,CCOC(=O)CN1N=C(/C=C/c2ccc(C)cc2)CCC1=O,inactive
15,CC(=O)CCc1ccc(OCC(O)CNCCOc2ccc(C)cc2)cc1 (stereo not given),"inconclusive [inhibitor, full curve]"
16,CCN(CC)S(=O)(=O)c1cccc(C(=O)NC(Cc2c[nH]c3ccccc23)c2nnc3n2CCCCC3)c1 (stereo not given),inactive
17,CSc1ccc(CN2CCN(CCC(C)C)C(CCO)C2)cc1 (stereo not given),inactive
18,COc1ccc(OC(C)C(=O)N(C)Cc2nc(-c3ccc(OC)cc3)no2)cc1 (stereo not given),inactive
19,N#Cc1nc(-c2ccco2)oc1N1CCc2ccccc2C1,inactive
20,Cc1ccc(S(=O)(=O)N2CCN(CC(=O)Nc3ccccc3C(=O)NC3CC3)CC2)cc1,"inconclusive [inhibitor, full curve, poor fit]"
21,CC(=O)c1c(C)[nH]c(C(=O)CSc2nnc(-c3ccco3)n2Cc2ccccc2)c1C,"inconclusive [inhibitor, full curve, poor fit]"
22,CC[C@@]12C(=O)N(c3cccc(Br)c3)C(=O)N1[C@H](c1ccc(OC)cc1)[C@@H]1C(=O)N(C(C)(C)C)C(=O)[C@@H]12,"inconclusive [inhibitor, full curve, poor fit]"
23,CCCc1nc2ccccc2c(=O)n1/N=C/c1ccccc1O,inactive
24,CCC1(CC)NC(=O)N(CC(=O)OCC(=O)Nc2ccc(F)c(F)c2F)C1=O,"inconclusive [inhibitor, full curve, poor fit]"

row,Compound,Potency
1,COc1cc(C(O)C(=O)O)ccc1O (stereo not given),"inconclusive [inhibitor, full curve, poor fit]"
2,O=C(NCCc1ccc(Cl)cc1)C1CCC(=O)N1Cc1ccc(F)cc1 (stereo not given),"inconclusive [inhibitor, partial curve, poor fit]"
3,Cc1ccnc(SCc2ccc([N+](=O)[O-])cc2)n1,inactive
4,CCOC(=O)N1CCN(C/C(Cl)=C/c2ccccc2)CC1,"inconclusive [inhibitor, partial curve, poor fit]"
5,Nc1cc(N)nc(SCc2cc([N+](=O)[O-])cc3c2OCOC3)n1,inactive
6,CC1CCN(c2ccc([N+](=O)[O-])cc2C(=O)N2CCOCC2)CC1,"inconclusive [inhibitor, partial curve, poor fit]"
7,N#Cc1c(-c2ccc([N+](=O)[O-])cc2)nc2n(c1=O)CCS2,"inconclusive [inhibitor, full curve, poor fit]"
8,CCOc1ccccc1OCCC(=O)OCC(=O)Nc1c(C)nn(-c2ccccc2)c1C,"inconclusive [inhibitor, partial curve]"
9,Cc1onc(-c2c(F)cccc2Cl)c1C(=O)OCC(=O)c1c[nH]c2ccccc12,"inconclusive [inhibitor, single point]"
10,CCNc1nc(Oc2ccc(=O)n(-c3ccccc3)n2)nc(N2CCOCC2)n1,"inconclusive [inhibitor, full curve]"
11,Cc1cc(=O)n2[nH]c(COc3ccccc3)nc2n1,"inconclusive [inhibitor, full curve, poor fit]"
12,Cn1c(SCc2cc(=O)[nH]c3ccccc23)nnc1-c1ccco1,"inconclusive [inhibitor, full curve, poor fit]"
13,Cn1c(=O)c2c(nc(SCCN3CCOCC3)n2Cc2ccc(F)cc2)n(C)c1=O,"inconclusive [inhibitor, full curve, poor fit]"
14,O=C(/C=C/c1cccc([N+](=O)[O-])c1)N1CCOCC1,"inconclusive [inhibitor, full curve, poor fit]"
15,O=C(CSc1nc2ccccc2[nH]1)Nc1ccc2c(c1)CCC2,inactive
16,O=C(O)/C=C/C(=O)NC1CCS(=O)(=O)C1 (stereo not given),"inconclusive [inhibitor, full curve]"
17,O=C1COc2ccc(C(=O)COC(=O)/C=C/c3ccc(Br)o3)cc2N1,"inconclusive [inhibitor, partial curve, poor fit]"
18,Cn1c(C(=O)NC2CC2)cc2c(=O)n(C)c3ccccc3c21,"inconclusive [inhibitor, full curve, poor fit]"
19,CCC(=O)c1cn(CC(=O)Nc2ccccc2)c2ccccc12,"inconclusive [inhibitor, partial curve, poor fit]"
20,COC1(OC)N=C(N)C2(C#N)C(c3ccccc3)NC(C)=CC12C#N (stereo not given),inactive
21,Cc1cccc(C)c1NC(=O)CN(C)S(=O)(=O)c1ccc(-c2ccc(=O)[nH]n2)s1,"inconclusive [inhibitor, full curve, poor fit]"
22,CN(C)CC/C=C1/c2ccccc2COc2ccccc21,inactive
